Laboratory results reported in publication PMC4336329 (PLoS ONE, 2015).
The campaign covered roughly 310,000 compounds. About 2,200 (0.71%) showed an effect of 50% or more. Effects have a minus sign here. The list shows a part of the results.

Molecular target: human ether-à-go-go-related gene (hERG) potassium channel (human, UniProt Q12809)
Assay: primary screen, population patch clamp on CHO cells stably expressing hERG

human ether-à-go-go-related gene (hERG) potassium channel, sequence (Q12809 whole entry, looked up): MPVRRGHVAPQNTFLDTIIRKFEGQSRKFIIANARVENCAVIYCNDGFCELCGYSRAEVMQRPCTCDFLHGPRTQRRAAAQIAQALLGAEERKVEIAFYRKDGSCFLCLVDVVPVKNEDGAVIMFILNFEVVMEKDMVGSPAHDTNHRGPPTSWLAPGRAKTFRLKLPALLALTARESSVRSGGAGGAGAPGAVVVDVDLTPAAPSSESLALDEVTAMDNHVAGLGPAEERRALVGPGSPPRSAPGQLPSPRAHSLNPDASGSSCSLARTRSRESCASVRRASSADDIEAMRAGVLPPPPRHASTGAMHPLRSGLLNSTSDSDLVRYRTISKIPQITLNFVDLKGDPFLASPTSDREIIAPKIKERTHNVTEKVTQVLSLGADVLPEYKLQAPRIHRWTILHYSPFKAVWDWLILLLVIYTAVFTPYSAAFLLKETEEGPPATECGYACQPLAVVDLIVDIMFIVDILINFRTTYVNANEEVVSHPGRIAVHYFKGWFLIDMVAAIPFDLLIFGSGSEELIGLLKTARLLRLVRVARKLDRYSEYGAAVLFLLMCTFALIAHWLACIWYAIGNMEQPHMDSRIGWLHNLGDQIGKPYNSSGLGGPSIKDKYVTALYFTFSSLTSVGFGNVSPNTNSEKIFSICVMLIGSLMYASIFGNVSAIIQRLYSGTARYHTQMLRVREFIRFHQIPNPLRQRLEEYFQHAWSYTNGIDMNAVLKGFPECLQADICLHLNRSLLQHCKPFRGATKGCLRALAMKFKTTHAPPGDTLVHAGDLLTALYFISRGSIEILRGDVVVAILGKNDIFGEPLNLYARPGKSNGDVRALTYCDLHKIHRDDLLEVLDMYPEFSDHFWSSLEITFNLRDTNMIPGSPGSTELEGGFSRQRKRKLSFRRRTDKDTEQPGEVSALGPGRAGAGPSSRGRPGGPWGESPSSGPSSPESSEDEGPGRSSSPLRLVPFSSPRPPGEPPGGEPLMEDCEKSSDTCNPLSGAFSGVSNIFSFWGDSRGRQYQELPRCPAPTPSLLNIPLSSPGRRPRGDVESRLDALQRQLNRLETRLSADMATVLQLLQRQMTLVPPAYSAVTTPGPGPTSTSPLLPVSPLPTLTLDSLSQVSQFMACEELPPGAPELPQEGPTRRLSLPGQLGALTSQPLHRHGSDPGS

Compared with Cc1cccc(C(=O)OC(C)C(=O)NC(=O)NC2CCCCC2)c1O (centres unmarked), Cc1cc(=O)oc(C)c1C(=O)NC1CCCCCCC1 is lower in “hERG current change (%, negative = inhibition) at 1uM” value: 8.19% for the first, 5.59% for the second.

Compared with Cc1sc2nc(C)n(/N=C/c3ccc(O)cc3O)c(=O)c2c1C, CCOC(=O)/C(=C\c1ccc(Cl)cc1)c1nc2sc(C)c(C)c2c(=O)[nH]1 is higher in “hERG current change (%, negative = inhibition) at 1uM” value: 3.03% for the first, 15.9% for the second.

Going from COc1ccc(S(=O)(=O)NC(C)C(=O)Nc2ccc3c(c2)OCCO3)cc1OC (centres unmarked) to O=C(CSCc1ccc(Cl)cc1)Nc1ccc2c(c1)OCO2, the “hERG current change (%, negative = inhibition) at 1uM” value falls from 9.81% to 8.51%.

Going from COc1cc(CNc2ccc3[nH]c(=O)[nH]c3c2)ccc1OCc1ccc(C)cc1 to COc1ccc(-n2c(SCC(=O)Nc3ccc(NC(C)=O)cc3)nc3c([nH]c4ccccc43)c2=O)cc1OC, the “hERG current change (%, negative = inhibition) at 1uM” value falls from 12.4% to 11.2%.

Going from COc1ccc(-c2nc(N)n(C(C)=O)n2)cc1 to COc1ccc(C(=O)N(CN2CCCC2=O)c2ccc(C)cc2)cc1, the “hERG current change (%, negative = inhibition) at 1uM” value falls from 15.8% to 3.12%.

First: CSCCC(NS(=O)(=O)c1ccc(Cl)cc1)C(=O)OCC(=O)NC12CC3CC(CC(C3)C1)C2 (centres unmarked)
Second: O=C(NC1CC2CCCC(C1)N2Cc1ccco1)NC12CC3CC(CC(C3)C1)C2 (centres unmarked)
The “hERG current change (%, negative = inhibition) at 1uM” value of the first is higher: 17.3% for the first, -4.75% for the second.

Compared with COc1ccccc1-n1c(C)cc(/C=C2\C(=N)N3N=C(CC(=O)N4CCOCC4)SC3=NC2=O)c1C, O=C(Oc1ccc(Br)cc1C(=S)N1CCOCC1)c1cccc([N+](=O)[O-])c1 is lower in “hERG current change (%, negative = inhibition) at 1uM” value: 18.4% for the first, 16.4% for the second.

Compared with CC1=CC(C)=[NH+]c2ccccc2N1.O.[Cl-], CC(C)(C)c1nc2ccccc2[nH]1 is lower in “hERG current change (%, negative = inhibition) at 1uM” value: 13.3% for the first, 10.8% for the second.

Going from COc1ccc(OCc2nnc(SCC(=O)N(C)Cc3ccccc3)n2N)cc1 to COc1ccc(NC(=O)CN(C)C(=O)C(C)Sc2ccccc2)cc1 (centres unmarked), the “hERG current change (%, negative = inhibition) at 1uM” value falls from 9.25% to 6.9%.

Compared with CCOC(=O)c1cc2c(ccn2C)n1CC(=O)N1CCC(Cc2ccccc2)CC1, CCNC(=S)N1CCN(Cc2ccccc2)CC1.O=C(O)C(=O)O is lower in “hERG current change (%, negative = inhibition) at 1uM” value: 4.31% for the first, -7.37% for the second.

Going from COC(=O)CCN1CCN(S(=O)(=O)c2ccccc2Br)CC1.O=C(O)C(=O)O to Cc1nnc(N2CCN(c3ccccc3)CC2)[nH]c1=O, the “hERG current change (%, negative = inhibition) at 1uM” value falls from 7.65% to 2.58%.

Compared with O=C(NCCCN1CCOCC1)c1cc(-c2ccc(Br)cc2)nc2ccccc12, O=C1c2oc3ccccc3c(=O)c2C(c2cccs2)N1CCCN1CCOCC1 (centres unmarked) is higher in “hERG current change (%, negative = inhibition) at 1uM” value: -3.18% for the first, 7.4% for the second.

First: CCc1c(C)sc(NC(=O)OC)c1C(=O)N1CCOCC1
Second: CCNc1nc(Oc2ccc(C(=O)OCC)cc2)nc(N2CCOCC2)n1
The “hERG current change (%, negative = inhibition) at 1uM” value of the first is lower: 0.475% for the first, 8.69% for the second.

Going from CCCOc1ccc(C(=O)Nc2ccccc2[N+](=O)[O-])cc1 to COC(=O)COc1ccc(-c2nn(C)c(=O)c3ccccc23)cc1, the “hERG current change (%, negative = inhibition) at 1uM” value falls from 8.01% to 5.27%.

Compared with O=S(=O)(c1ccc(Br)cc1)N1CCC2(CC1)OCCO2, COc1ccc(S(=O)(=O)N2CCN(C(=O)N(C)C)C2C)cc1 (centres unmarked) is higher in “hERG current change (%, negative = inhibition) at 1uM” value: 15.2% for the first, 16.8% for the second.

Going from Cn1ncc(Cl)c1C(=O)Nc1ccc(Cl)cn1 to CCc1ccc(NC(=O)C2=CC(c3cccs3)=NS(=O)(=O)N2C)cc1, the “hERG current change (%, negative = inhibition) at 1uM” value rises from 9.75% to 9.92%.

Compared with COc1cc(-c2nn3c(-c4ccccc4)nnc3s2)cc(OC)c1OC, COc1ccc(C2C3=C(CCCC3=O)Nc3nc(SCc4ccccc4)nn32)cc1OC (centres unmarked) is lower in “hERG current change (%, negative = inhibition) at 1uM” value: 3.29% for the first, -1.15% for the second.

Compared with O=C(CNS(=O)(=O)c1ccc(Br)s1)NCc1ccc(F)cc1, Cc1ccc(S(=O)(=O)N2CCCOC2CNC(=O)C(=O)NCc2ccccc2C)cc1 (centres unmarked) is higher in “hERG current change (%, negative = inhibition) at 1uM” value: 1.24% for the first, 10.6% for the second.

First: CCOc1ccc(/C=C/[N+](=O)[O-])c2ccccc12
Second: COc1ccc([N+](=O)[O-])cc1NC(=O)C1(c2ccccc2)CCOCC1
The “hERG current change (%, negative = inhibition) at 1uM” value of the first is higher: 5.9% for the first, 2.81% for the second.

First: CCn1c(C)c(C)c2cc(C(=O)NCCCN3CCCC3)ccc21
Second: Cc1cc(N2CCCCC2)ccc1[N+](=O)[O-]
The “hERG current change (%, negative = inhibition) at 1uM” value of the first is higher: 13.5% for the first, 11% for the second.

Compared with CCS(=O)(=O)N1Cc2ccccc2CC1C(=O)Nc1cccc(C)c1 (centres unmarked), Cc1cccc(C)c1OCC(O)CN1CCc2ccccc2C1.Cl (centres unmarked) is lower in “hERG current change (%, negative = inhibition) at 1uM” value: 2.72% for the first, -24.3% for the second.

Going from Cn1cc(Br)c(C(=O)Nc2sc3c(c2C#N)CCC3)n1 to Cc1noc(C)c1C(=O)Nc1c(F)cc(F)cc1Br, the “hERG current change (%, negative = inhibition) at 1uM” value falls from 14% to 3.26%.

Compared with O=C(COC(=O)CCCN=C1NS(=O)(=O)c2ccccc21)NNC(=O)c1ccccc1, Cc1cc(C)cc(OCC(=O)OCC(=O)N(C)CC(=O)Nc2ccc(F)cc2)c1 is lower in “hERG current change (%, negative = inhibition) at 1uM” value: 7.73% for the first, 4.79% for the second.

Compared with O=C(Nc1ccc(N2CCOCC2)cc1N1CCOCC1)c1ccc([N+](=O)[O-])cc1, Cc1ccc(-c2cc(C(=O)N3CCN(c4ncccn4)CC3)c3cc(Br)ccc3n2)o1 is higher in “hERG current change (%, negative = inhibition) at 1uM” value: -6.01% for the first, -3.49% for the second.

First: COc1ccc(S(=O)(=O)N(Cc2ccco2)Cc2cc3ccccc3[nH]c2=O)cc1
Second: Cc1ccc(S(=O)(=O)N/N=C2/CC(c3ccccc3)Oc3ccccc32)cc1[N+](=O)[O-] (centres unmarked)
The “hERG current change (%, negative = inhibition) at 1uM” value of the first is lower: 10% for the first, 14.4% for the second.

First: O=C(NN1C(=O)c2ccccc2C1=O)c1ccncc1
Second: O=C(CSc1n[nH]c(=O)[nH]c1=O)Nc1ccc2c(c1)C(=O)c1ccccc1C2=O
The “hERG current change (%, negative = inhibition) at 1uM” value of the first is higher: 13.3% for the first, 2.23% for the second.

Compared with COCCCNc1nc2nonc2nc1N1CCN(C2CCCC2)CC1, O=C(Cn1ncc2c(=O)oc3ccccc3c21)NCC1CCCO1 (centres unmarked) is higher in “hERG current change (%, negative = inhibition) at 1uM” value: 10.5% for the first, 14% for the second.

First: CNC(=O)c1[nH]cnc1C(=O)N[C@@H](C)C(=O)OC(C)(C)C
Second: O=C(Nc1cccc(NC(=O)c2c(F)cccc2F)n1)c1c(F)cccc1F
The “hERG current change (%, negative = inhibition) at 1uM” value of the first is higher: 19.4% for the first, 9.81% for the second.
